# Experimental data from the supplement of paper PMC9513381.
# Recombinant human monoclonal antibodies (heavy:light variable regions). ELISA EC50 on the named antigen, from 10 µg/ml down; IC50 / IC90 against spike pseudovirus on 293T-ACE2 cells, 48 h; lower = stronger. Calls: IC50 above 1,000 ng/ml = non-neutralizing; EC50 above 1,000 ng/ml = non-binder. The source prints 1000 for neutralization that was not reached; it is given as >1000 ng/ml. Only binders of the Wuhan-Hu-1 domain have neutralization values.
# B1: B2133 (protein)
# chain 1: QVQLVQSGAEVQKPGSSVKVSCKTSGGTFGSYGISWVRQASGQGLEWMGGIIPVFGAVNYAQKFQGRVTITADKSTSTVYMELSSLRFEDTAVYYCGRAVGHEWELLSFGRDAYGMNVWGQGTTVTVSS
# chain 2: EIVLTQSPATLSLSPGERATLSCRASQSVSRYLAWYQQKPGQAPRLLIYGASERATGIPARFSGSGSGTDFTLTISSLEPEDFAVYYCQQRSIRPSFGGGTKVEIK
# B2: B2134 (protein)
# chain 1: QLVQSGPEVKKPGTSVKVSCKVPRHTFSSSAVHWVRQARGQRLEWIGWIVVGRGTTNYAQKFQERVTITRDMSASTVNMELSSLTSEDTAVYFCAAGDGDYGHYGMDVWGQGTTVTVSS
# chain 2: QSVLTQPPSVSGAPGQRVTISCTGSNSNIGAGYDVHWYQQLPGTAPKLLIHGNSNRPSGVPDRFSGSKSGTSASLAITGLQPEDEADYYCQSYDSSLSGSVFGGGTQLTVL
# B3: B2012 (protein)
# chain 1: QLVQSGPEIKKPGTSVKVSCKASGFTFSNSAVQWVRQARGQHLEWIGWIVVGSGDPNYAQKFQERVTLTRDMSTGTAYMELSSLRSEDTAFYYCATNNCSRTICSDGFDIWGQGTMVTVSS
# chain 2: IRMTQSPSSLSASVGDRVTITCQASQDINNYLNWYQQKPGRAPKLLIYDASNLETGVPSRFSGSGSGTEFTFTISSLQPEDIATYYCQQYDNLPITFGQGTRLEIK
# B4: B2135 (protein)
# chain 1: QVQLVESGGGVVQPGRSLRLSCAASGFTFSSYGMHWVRQAPGKGLEWVAVIWYDGSNKYYADSVKGRFTISRDNSKNTLYLQMNSLRAEDTAVYYCASNEGGRVAGRGMNYYYYGMDVWGQGTTVTVSS
# chain 2: SYELTQPPSVSVAPGQTARITCGGNNIGSKNVHWYQQKPGQAPVLVVHDDSDRPSGIPERFSGSNSGNTATLTISRVEAGDEAEYYCQVWGSSSDHPYVFGTGTKVTVL
# B5: B2099 (protein)
# chain 1: EVQLVESGGDLVHPGESLTLSCAASGFTFSSYSMNWVRQAPGKGLEWVSYVSSSATTIYYAESVKGRFTISRDNAKNSLYLQMNSLRDEDMAVYYCARDRTPFYDAWNGWGPLDYWGQGTWVTVSS
# chain 2: DIQMTQSPSTLSASVGDRVTITCRASQSISSWLAWYQQKPGKAPKLLISDASNLESGVPSRFSGSGSGTEFTLSISSLQPDDFATYYCQQYNSYRYTFGQGTKLEIK
# B6: B2100 (protein)
# chain 1: QVQLVESGGGLVQPSQSLSITCTVSGFSLTTYGVHWVRQSPGKGLEWLGVKWSGGSTDYNAAFISRLSITKDNSKSQVFFKINSLQADDTAIYYCARGDYDPYYYAMDYWGQGTSVTVSS
# chain 2: QSVLTQPPSVSGAPGQRVTISCTGSSSNIGAGSDVHWYQQFPGTAPKLLIYGSTHRPSGVPDRFSGSKSGTSASLAITGLQAEDEADYYCQSYDSSLSAPYVFGTGTKVTVL
# B7: B1049 (protein)
# chain 1: QVQLQESGPGLVKPSQTLSLTCTVSGGSISSGPYYWSWIRQHPGKGLEWIGYIYYSGSTYYNPSLKSRVTISVDTSKKQFSLNLNSVTAADTAVYYCARVWQYYDSTGSFDYWGQGTLVTVSS
# chain 2: QSVLTQSPSASGTPGQRVTISCSGSSSNIGSNTVNWYQQVPGTAPKLLIYSDNQRPSGVPDRFSASKSGTSASLAISGLQSEDEADYYCAAWDDGLNGVLFGGGTKLTVL
# B8: B1050 (protein)
# chain 1: QVQLQQWGAGLLKPSETLSLTCGVFRASLIDFYWTWIRQSPGKGPEWIGGIYHNGSADSSPSMKSRVTISIDTSKNQFSLQLTSVTAADNGVYYCARGLGSWLQMPVAFWGQGNLVTVSS
# chain 2: QVQLQQWGAGLLKPSETLSLTCGVFRASLIDFYWTWIRQSPGKGPEWIGGIYHNGSADSSPSMKSRVTISIDTSKNQFSLQLTSVTAADNGVYYCARGLGSWLQMPVAFWGQGNLVTVSS
# Target: SARS-CoV-2 Delta (B.1.617.2) spike RBD
# Assay: ELISA binding EC50; higher = weaker binding; ELISA of recombinant human antibody on coated antigen, from 10 µg/ml in fourfold dilutions; four-parameter fit.
row,Binder,ELISA binding EC50
1,B1,> 1 µg/mL
2,B2,> 1 µg/mL
3,B3,> 1 µg/mL
4,B4,> 1 µg/mL
5,B5,> 1 µg/mL
6,B6,> 1 µg/mL
7,B7,> 1 µg/mL
8,B8,> 1 µg/mL

# Target: SARS-CoV-2 Omicron BA.1 spike protein
# Assay: as above
row,Binder,ELISA binding EC50
1,B1,> 1 µg/mL
2,B2,> 1 µg/mL
3,B3,> 1 µg/mL
4,B4,> 1 µg/mL
5,B5,> 1 µg/mL
6,B6,> 1 µg/mL
7,B7,> 1 µg/mL
8,B8,> 1 µg/mL

# Target: SARS-CoV-2 Wuhan-Hu-1 spike receptor-binding domain
# Assay: as above
row,Binder,ELISA binding EC50
1,B1,> 1 µg/mL
2,B2,> 1 µg/mL
3,B3,> 1 µg/mL
4,B4,> 1 µg/mL
5,B5,> 1 µg/mL
6,B6,> 1 µg/mL
7,B7,> 1 µg/mL
8,B8,> 1 µg/mL
